# From paper PMC12136788
# This is one part of the list.
# B1: chr4:173384700:173388395:-|three_prime_utr|ENSG00000164106|control|control|control (ssRNA)
# RNA: GGGAGUUCUACAGUCCGACGAUCCUGGAGAACACCAUUCCUGAUUUCCCACAAACUGCACUACAUCAGUAUAACUGCAUUUCUAGUUUCUAUAUAGUGCAAUAGAGCAUAGAUUCUAUAAAUUCUUACUUGUCUAAGACAAGUCAACAGAGGAUUGAGCAUCA
# B2: chr6:139242528:139243314:-|CDS|ENSG00000164440|control|control|control (ssRNA)
# RNA: GGGAGUUCUACAGUCCGACGAUCGGUGCCUGCAUGCGAGCCCAGUAGGCAGCCCCCACGAGCAGCAGCAGAGGAGCUGCCAGUAGGGGCCUCAGCUGGGCCCCAGCCGCGCAACGUGGCUGACACCAAUCUGGAAGGCGUCGACAACAGAGGAUUGAGCAUCA
# B3: chr1:9850293:9850394:-|3pUTR|ENSG00000178585|unk|FALSE|unique (ssRNA)
# RNA: GGGAGUUCUACAGUCCGACGAUCCGGUAUCUGGCUUCCCUGGAAGCUCUCCGAGCUCUGGUGCUUUAGUUAGGUCAUUUUUUUAGAAAUGUGAAGAGGUCUGAUUGGCUGCUUAAACUGGAAAGGAUCUGUGAUUGGCUGGUUCAACAGAGGAUUGAGCAUCA
# B4: chr9:133361993:133362109:-|3pUTR|ENSG00000148248|msi1_unk|FALSE|overlapping (ssRNA)
# RNA: GGGAGUUCUACAGUCCGACGAUCGGCAGGUUUCUGCUCAUAAGUGCUUUUGGAAGUCACCUACCUUUUUAACACAGCCGAACUAGUCCCAACGCGUUUGCAAAUAUUCCCCUGGUAGCCUACUUCCUUACCCCCGAAUAUUGGCAACAGAGGAUUGAGCAUCA
# B5: ENSG00000198589:be:win_8951|3pUTR|ENSG00000198589|bound_else_gene|NA|bound_elsewhere_windowed (ssRNA)
# RNA: GGGAGUUCUACAGUCCGACGAUCGAAAAUUUGAUGCUGUAAUUUGGGUCCUGUAUUUUUCCAAACAACUGUGCUUCUUCAGCACUAAUAUUUCUGGGAUUUAAAUAGUAAUGUUUAAAUUAUGGUAAAUGUAAUUUAAAACAUCAACAGAGGAUUGAGCAUCA
# B6: chrX:117909842:117909960:-|CDS|ENSG00000003096|unk|total|mutant (ssRNA)
# RNA: GGGAGUUCUACAGUCCGACGAUCAGCACAGGGGAGUUCUUGAAACUCCCUUUUGAGCGUCUUGCCUUCGUGCUUUCCAGUAACCGCCUUAAGCACUGUACUGAACUUGAGCUCUUUAAGGCUACCUGUCGUUGGCUUCGCCUGCAACAGAGGAUUGAGCAUCA
# B7: chr3:48432659:48432768:-|CDS|ENSG00000164051|unk|total|mutant (ssRNA)
# RNA: GGGAGUUCUACAGUCCGACGAUCAGUCCCCCGACCAGAGACAGAGAUGCCGAUGUCCUUUCAGCUGCCUUGAAAGAGCAGCUCCGUCAUUCCAGGCAAGUCCAUUCAUGUCCCGAAGGCUUACGAGAGCAGCUUGAUGGCCUACAACAGAGGAUUGAGCAUCA
# B8: chr22:27980698:27980799:-|3pUTR|ENSG00000100154|unk|FALSE|unique (ssRNA)
# RNA: GGGAGUUCUACAGUCCGACGAUCUAACCAUUAAUUUAUUUUAUAAAGAAAGGAAAUGCUGAAAGUCGUAUUAGUACUGAGUUUAGUUGGAGAAUUUAGAUAAGUAAGUAUCUUUUAGGUAAUUCUAAAAUUAAAAUCCUACCCCAACAGAGGAUUGAGCAUCA
# B9: chr7:88202242:88202358:+|3pUTR|ENSG00000008277|unk|FALSE|unique (ssRNA)
# RNA: GGGAGUUCUACAGUCCGACGAUCUCAGGAUAGAUAAGCAUGUACUCCUUUUUUAACUUGCUGGAAGACUUGCCCCUCCAAACUAGCACCCCCAAAAGACAACUUCUUUCAGAAACGGGGUGUUUUACCUAAACAUAGUAGCUUCAACAGAGGAUUGAGCAUCA
# B10: chr1:117869688:117869789:-|3pUTR|ENSG00000196505|msi1|FALSE|unique (ssRNA)
# RNA: GGGAGUUCUACAGUCCGACGAUCACUCCAGCAGUGAGCAUUUAGAGAGUGUGUUGUCUUCCAGAGUCAUGAAUGAUUUUGUUUAGCUAUCAGGUCUACUACCUCUAAGGACAUUUCAUAGCAGCAUCUCUUGAGUUGCCUGCACAACAGAGGAUUGAGCAUCA
# B11: chr12:95077336:95077437:-|3pUTR|ENSG00000180263|msi1|total|mutant (ssRNA)
# RNA: GGGAGUUCUACAGUCCGACGAUCUCCUCAUUGACCCAUCCGCAUCUCUGUUUAUCCAAGACUUCUCUGUGACCGCUGACCCUCCGUCUUUCUCUCCCCUAUUCCUCCAGACCCGAUCCUGUCUCCUUCCUGCAGCCCCGACACCAACAGAGGAUUGAGCAUCA
# B12: chr8:23145667:23145921:-|CDS|ENSG00000173530|control|control|control (ssRNA)
# RNA: GGGAGUUCUACAGUCCGACGAUCGGGGAUGCUUGCCUCUCCCUAUCACUACCUUAUCAUCAUAGUGGUUUUAGUCAUCAUUUUAGCUGUGGUUGUGGUUGGCUUUUCAUGUCGGAAGAAAUUCAUUUCUUACCUCAAAGGCAUCAACAGAGGAUUGAGCAUCA
# B13: chr5:157162449:157163658:-|CDS|ENSG00000170613|control|control|control (ssRNA)
# RNA: GGGAGUUCUACAGUCCGACGAUCGGUCACAUCACAUGACAGAGAGGUAGAUAUCGUGGCUAAGAUGGUGGAGAAGCAAAACAUAGAGGCCAAAGUGGAGAAAGCCCAGGGUGGCCAGGAGCUGGAGAUGAUCAGUGGCACUAUCAACAGAGGAUUGAGCAUCA
# B14: chr5:154898482:154898583:-|CDS|ENSG00000082516|unk|total|mutant (ssRNA)
# RNA: GGGAGUUCUACAGUCCGACGAUCUUUGGCCAAAAAGGGGGAUGCGGCAUCACUCCGAACGGCUGCAGAGUUGGCUGCCAUCGCCGGAGAGGAUGAGUUGUCUGCUUCCCUGGCUCUCAGAUGUGCCCAAGAGCUGCUUCUGGCCAACAGAGGAUUGAGCAUCA
# Biological target: MSI1 full-length (mouse, UniProt Q61474 1-362)
# Assay: nsRBNS (natural sequence RNA bind-n-seq); RBNS binding buffer (assumed for nsRBNS): 25 mM Tris pH 7.5, 150 mM KCl, 3 mM MgCl2, 0.01% Triton X-100, 500 ug/ml BSA, 20 U/ml SUPERase-In, 4 C; UNK is unkempt and MSI1 is Musashi-1; names of the RNAs are library labels; protein concentration not given here; high values mean tight binding
# Sequence of UniProt Q61474 (Q61474 whole entry): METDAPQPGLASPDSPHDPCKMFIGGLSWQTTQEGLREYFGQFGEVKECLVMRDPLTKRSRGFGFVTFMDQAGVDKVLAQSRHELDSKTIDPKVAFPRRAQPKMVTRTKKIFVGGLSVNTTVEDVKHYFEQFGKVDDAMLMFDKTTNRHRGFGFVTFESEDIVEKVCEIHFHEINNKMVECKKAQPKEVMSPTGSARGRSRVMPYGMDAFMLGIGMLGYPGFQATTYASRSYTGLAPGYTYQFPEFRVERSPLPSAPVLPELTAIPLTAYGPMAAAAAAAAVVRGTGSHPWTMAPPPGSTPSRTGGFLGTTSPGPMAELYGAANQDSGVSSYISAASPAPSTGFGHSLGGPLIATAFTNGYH
row,Binder,binding signal [enrichment R]
1,B1,1.16
2,B2,0.254
3,B3,2.47
4,B4,0.473
5,B5,0.503
6,B6,0.349
7,B7,0.43
8,B8,12.2
9,B9,2.56
10,B10,0.721
11,B11,0.928
12,B12,2.8
13,B13,0.709
14,B14,0.367
